In paper PMC6919601, “Identification of Plasmodium dipeptidyl aminopeptidase allosteric inhibitors by high throughput screening” (PLoS ONE, 2019):
Hit rate of the full screen: of about 110,000 compounds, about 230 (0.21%) showed an effect of 50% or more. This is one part of the list.

What follows are compounds tested against DPAP1 (Plasmodium falciparum, UniProt Q8IIJ9) (assay: primary screen, percent inhibition; read by cleavage of a fluorogenic dipeptide substrate; higher = more effect of the substance).
Chain of DPAP1 (Q8IIJ9 whole entry, looked up): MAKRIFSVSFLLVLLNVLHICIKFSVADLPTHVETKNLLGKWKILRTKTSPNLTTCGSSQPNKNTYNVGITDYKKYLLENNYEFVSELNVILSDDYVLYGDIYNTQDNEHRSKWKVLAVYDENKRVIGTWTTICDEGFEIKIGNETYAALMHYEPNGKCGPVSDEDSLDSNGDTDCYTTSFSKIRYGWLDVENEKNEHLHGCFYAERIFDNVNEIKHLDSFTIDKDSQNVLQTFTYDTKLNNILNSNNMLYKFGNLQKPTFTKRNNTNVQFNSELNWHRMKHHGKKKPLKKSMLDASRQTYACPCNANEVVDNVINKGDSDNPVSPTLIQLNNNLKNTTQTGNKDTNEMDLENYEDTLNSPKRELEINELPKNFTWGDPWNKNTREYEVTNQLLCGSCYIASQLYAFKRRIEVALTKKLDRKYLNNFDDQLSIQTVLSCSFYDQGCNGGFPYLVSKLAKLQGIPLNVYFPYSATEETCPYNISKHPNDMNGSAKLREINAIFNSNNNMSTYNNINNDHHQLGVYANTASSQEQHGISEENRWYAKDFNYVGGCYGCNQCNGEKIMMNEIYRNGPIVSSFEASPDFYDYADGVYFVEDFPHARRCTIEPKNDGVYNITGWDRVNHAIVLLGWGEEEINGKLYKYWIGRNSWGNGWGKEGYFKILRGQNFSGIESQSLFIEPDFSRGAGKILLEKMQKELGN
Set-up: species or system P. falciparum D10 trophozoite lysates; single well
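Further: 30 min substrate incubation versus DMSO and 10 µM JCP410 controls.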

| SMILES | % Inhibition @ 10 uM |
| --- | --- |
| CN(C)c1cc(NC(=O)CN2CCOCC2)c2ccccc2n1 | -3.66% |
| O=C(CN1C(=O)NC2NC(=O)NC21)NC1CCCCC1 (centres unmarked) | -0.0735% |
| CC(C)n1cc(NC(=O)C2=CC(c3ccco3)=NS(=O)(=O)N2C)cn1 | 2.32% |
| O=C(Cn1cnc2ccccc2c1=O)Nc1cc(Cl)ccc1Oc1ccccc1 | -1.22% |
| Cc1ccc2oc(-c3ccc(N)c(C)c3)nc2c1 | -1.85% |
| O=C(Nc1cccnc1)C1c2ccccc2C(=O)N(C2CCCC2)C1c1cccs1 (centres unmarked) | -2.28% |
| COc1cccc(-n2c(C)cc(/C=C3\NC(=O)N(c4ccccc4)C3=O)c2C)c1 | -3.26% |
| COc1cccc(/C=N/n2cnnc2)c1OC | -0.339% |
| CCCN(CCC)CCn1cnc2c3ccccc3nc-2c1O | 6.31% |
| Nc1c(Cl)cc(N2C(=O)c3ccccc3C2=O)cc1Cl | -5.41% |
| c1ccc(OCCn2cnnn2)cc1 | 7.68% |
| CCCCc1ccc(NC(=O)c2ccccc2OC)cc1 | 3.8% |
| CCc1nc2ccccc2n1CC(O)COc1ccc(C(=O)O)cc1 (centres unmarked) | 2.95% |
| Cc1cc(S(=O)(=O)N2CCN(Cc3ccccc3)CC2)c(Cl)cc1Cl | 2.26% |
| CCCN(Cc1ccc(O)cc1)CC1CC1 | 0.0792% |
| O=C1C2CC=CCC2C(=O)N1c1cccc(Cl)c1 (centres unmarked) | -3.5% |
| c1ccc2cc(CN3CCc4c([nH]c5ccccc45)C3)ccc2c1 | 1.48% |
| O=C(C1CCN(S(=O)(=O)c2c[nH]cn2)CC1)N1CCN(Cc2ccc3c(c2)OCO3)CC1 | 1.23% |
| C=CCOc1cccc(C2C(C(=O)c3ccc(F)cc3)=C(O)C(=O)N2Cc2cccnc2)c1 (centres unmarked) | -8.06% |
| CCOc1cc(C2Nc3ccccc3N=C3CC(C)(C)CC(O)=C32)ccc1O (centres unmarked) | -2.56% |
| Cn1cnnc1SCC(=O)Nc1nc2ccccc2s1 | -2.87% |
| Cc1ccc(CNC(=O)C(Cc2ccccc2)NS(=O)(=O)c2cccc3cccnc23)cc1 (centres unmarked) | 0.981% |
| Cc1nc2c(-c3ccccc3)c(Cc3ccccc3)nn2c(O)c1Cl | 3.32% |
| Cn1nc(-c2ccccc2)c2c(C(=O)C(F)(F)F)cc(C(=O)C(F)(F)F)c-2c1-c1ccccc1 | -8.22% |
| Cc1cc(NC(=O)c2cc(-c3ccccc3C)nc3ccccc23)no1 | 3.86% |

| SMILES | % Inhibition @ 10 uM |
| --- | --- |
| COc1cc(C2C3=C(O)CCCC3=NC(C)=C2C(=O)Nc2cccc(C)n2)cc(OC)c1OC (centres unmarked) | 4.11% |
| Cc1sc(NC(=O)C2C3C=CC(C3)C2C(=O)O)c(C#N)c1-c1ccc(C(C)C)cc1 (centres unmarked) | -0.413% |
| O=C(Nc1cc(O)nc(O)n1)c1cccc2ccccc12 | -3.37% |
| CCCN(CCC)C(=O)Cc1coc2ccc3ccccc3c12 | -1.43% |
| CCOC(=O)N1CCN(CC(O)COc2ccc(C(C)C)c(C)c2)CC1 (centres unmarked) | -6.3% |
| COC(=O)c1c(NC(=O)c2cc(OC)c(OC)c(OC)c2)sc(C)c1C | 22.8% |
| CC(C)C[C@@H](/C=C/S(C)(=O)=O)NC(=O)[C@H](C)NC(=O)C(c1ccccc1)c1ccccc1 | 0.079% |
| COc1ccc(CCNC(=O)c2cc(=O)c3ccc(C)c(C)c3o2)cc1OC | -11% |
| O=C1S/C(=C/c2ccc(OCCO)cc2)C(=O)N1CN1CCN(c2ccc(F)cc2)CC1 | -8.67% |
| Cc1onc(-c2ccccc2)c1C(=O)Nc1nnc(N(CC(C)C)CC(C)C)s1 | 3.29% |
| O=C1C(Cl)=C(Nc2cccc(O)c2)C(=O)N1c1ccccc1 | 4% |
| COCCNC(=O)CSCc1nc(-c2ccc(C)cc2)oc1C | -4.71% |
| Cc1ccc2oc(C(=O)NCc3ccccc3)cc(=O)c2c1 | -1.47% |
| CCON(C(=O)OC)c1c(F)c(F)c(N(OCC)C(=O)OC)c(F)c1F | -2.53% |
| Cc1cc(C)c(NC(=O)C(C)SCC(=O)Nc2ccccc2)c(C)c1 (centres unmarked) | 0.83% |
| CCc1nc2ccc(C(=O)NCc3ccccn3)cc2nc1CC | 2.77% |
| CC(C)c1ccc(OCC(=O)Nc2ccc(N3CCN(C)CC3)cc2)cc1 | 3.29% |
| Cc1ccc(Sc2ccncc2S(=O)(=O)NC(=O)NC2CCCCC2)cc1 | -5.21% |
| O=C(C1=CSCCO1)N1CCc2ccccc2C1 | 3.3% |
| CC(C)CC(NCCC(O)c1ccccc1)C(=O)O (centres unmarked) | -5.11% |
| COc1cc(OC)c(OC)cc1/C=C1\N=C(c2ccc(Cl)c(Cl)c2)OC1=O | -7.76% |
| Cc1cc2c(n1-c1ccc(C(=O)NCC3CCCO3)cc1)CCC(C)C2 (centres unmarked) | -1.68% |
| O=C1/C(=C/c2ccc(O)cc2)C(=O)N(c2ccc(Br)cc2)C(=S)N1c1ccccc1 | 5.64% |
| CCc1cccc(C)c1NC(=O)CN(c1ccc(C)cc1)S(C)(=O)=O | 1.71% |
| C=CCOc1cccc(C=C2C(=O)NC(=O)NC2=O)c1 | 19.4% |
